Reference: the supplement of paper PMC9513381
Recombinant human monoclonal antibodies (heavy:light variable regions). ELISA EC50 on the named antigen, from 10 µg/ml down; IC50 / IC90 against spike pseudovirus on 293T-ACE2 cells, 48 h; lower = stronger. Calls: IC50 above 1,000 ng/ml = non-neutralizing; EC50 above 1,000 ng/ml = non-binder. The source prints 1000 for neutralization that was not reached; it is given as >1000 ng/ml. Only binders of the Wuhan-Hu-1 domain have neutralization values.

How the values were obtained:
[1] = biological target: SARS-CoV-2 Wuhan-Hu-1 spike pseudovirus; experiment: pseudovirus neutralization IC50; higher = weaker neutralization
Method: (§1)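 Single-round luciferase reporter pseudovirus mixed with antibody dilutions and put on 293T-ACE2 cells for 48 h; signal relative to no-antibody wells, four-parameter fit.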

[2] = biological target: SARS-CoV-2 Wuhan-Hu-1 spike pseudovirus; experiment: pseudovirus neutralization IC90; higher = weaker neutralization
Method: as §1

[3] = biological target: SARS-CoV-2 Delta (B.1.617.2) spike RBD; experiment: ELISA binding EC50; higher = weaker binding; ELISA of recombinant human antibody on coated antigen, from 10 µg/ml in fourfold dilutions; four-parameter fit.
[4] = biological target: SARS-CoV-2 Omicron BA.1 spike protein; experiment: as above
[5] = biological target: SARS-CoV-2 Wuhan-Hu-1 spike receptor-binding domain; experiment: as above

| Binder | pseudovirus neutralization IC50 [1] [µg/mL] | pseudovirus neutralization IC90 [2] [µg/mL] | ELISA binding EC50 [3] [µg/mL] | ELISA binding EC50 [4] [µg/mL] | ELISA binding EC50 [5] [µg/mL] |
| --- | --- | --- | --- | --- | --- |
| B2016 (protein) chain 1: VQLVESGGGVVQPGRSLRLSCAASGFTFSNYAMHWVRQTPGKGLEWVAVISYDGSKKYYGDSVKGRFTISRDNSKNTLYLEMNSLRAEDTAVYYCAKAEGPYGSGTSHYYYGMDVWGQGNTVTVSS chain 2: DIQLTQSPSSLSASVGDRVTITCRASQSISTYLHWYQQKPGKAPNLLIYAASSLQSGVPSRFRGSGSGADFTLTISSLQPEDFATYYCQQSYSTPLTFGGGTKVEIK | 0.0184 | 0.127 | > 1 | > 1 | 0.00123 |
| B2017 (protein) chain 1: QVQLVQSGAEVKKPGSSVKVSCKASGGIFSSYAISWVRQAPGQGLEWMGGIIPIFGTTTYAQKFQGRVTITADESTTTAYMELSSLRSEDTAVYYCASGPPTYNDFWSGYSFDYWGQGTLVTVSS chain 2: EIVLTQSPGTLSLSPGERATLSCRASQSVNSDFLAWYQQIPGQAPRLLIYGASNRATGIPEKFSGSGSGTDFTLTISRLEPEDFAVYYCQQYGNSPFTFGPGTKVDIK | > 1 | > 1 | 0.0323 | 0.0081 | 0.00469 |
| B2018 (protein) chain 1: QVQLVQSGAEVKKPGSSVKVSCKTSGGTFSSYAISWVRQAPGQGLEWMGGIIPRFGIPNYVQKFQGRVTITADKSTSTAYMELASLRSEDTAVYYCARVGDRSTVPYFDYWGQGILVTVSS chain 2: EIVMTQSPATLSVSPGERATLSCRASQSVSSDLAWYQQKPGQAPRLLISGASTRATGIPARFSGSGSGTEFTLTISSLQSEDFAVYYCQQYNNWPITFGQGTRLEIK | 0.0215 | 0.117 | > 1 | > 1 | 0.0027 |
| B2019 (protein) chain 1: EVQLVESGGGLVQPGRSLRLSCAASGFNIADYGMHWVRQAPGKGLEWVAGISWNSGRIGYADSVKGRFTISRDNAKKSLSLQMNSLRAEDTALYYCAKTYCGGDCYSLLLYDPLDIWGQGTMVTVSS chain 2: DIQLTQSPSSLSASVGDRVTITCRASQDISNDLAWYQQKPGKVPKLLIYGASTLQSGVPSRFSGSGSGTDFTLTISSLQPEDVATYYCQQYNSGGTFGPGTKVDIK | 0.0366 | 0.9 | 0.0072 | 0.0162 | 0.00234 |
| B2020 (protein) chain 1: VQLVESGGGVVQPGTSVRLSCAASRFTFSSYGMHWVRQAPGKGLEWVAGISFHGSNKYYADSVKGRFNISRDNSKNTLSLQMNSLRTEDTAVYYCAKDRGGGILRFLEWLSDYDCGLDVWGQGTTVTVSS chain 2: DIQMTQSPSSLSASVGDRVTITCRASQNINRYLNWYQQKPGEAPKLLIYAASSLQSGVPSRFSGSGSGTDFALTISSLQPEDFANYYCQQTYRTPPSTFGQGTRLEIK | > 1 | > 1 | > 1 | > 1 | 0.01 |
| B2008 (protein) chain 1: QLVQSGPEIKKPGTSVKVSCKASGFTFSNSAVQWVRQARGQHLEWIGWIVVGSGDPNYAQKFQERVTLTRDMSTGTAYMELSSLRSEDTAFYYCATNNCSRTICSDGFDIWGQGTMVTVSS chain 2: DIQMTQSPSTLSASVGDRVTITCRASQSLTSWLAWYQQKPGKAPNLLIYDASILDSGVPSRFSGSGSGTEFTLTISSLQPQDFATYYCQQYKGYPWTFGQGTKVEIK | > 1 | > 1 | > 1 | > 1 | 0.226 |
| B2021 (protein) chain 1: QVQLQESGPGLVKPSQTLSLTCTVSGGSISSYGYYWSWIRQHPEKGLEWIGHIYYSGSTYYNPSLKSRVTISVDTSKNQFSLKLSSLTAADTAVYYCARDPLAGRGQFDRWGQGTLVTVSS chain 2: IRMTQSPSSLSASVGDRVSITCQASQDISNFLNWYQQKPGQAPKLLIYDASSLETGVPSRFSGSGSGTHFTFTISSLQPEDIATYYCQQFDDVPPSFGQGTKLEIK | > 1 | > 1 | 0.0103 | 0.00434 | 0.00235 |
| B2024 (protein) chain 1: QLVQSGPEVKKPGTSVKVSCKASGFTFTTSAVQWVRQARGQRLEWIGWIAVGSGKTEYAQKFQERVALSRDTSANTAYMDLRSLTSEDTAVYYCAAPDCNRTTCLDGFDIWGQGTMVTVSS chain 2: EIVLTQSPGTLSLSPGERTTLSCRASQSVSRNYLAWYLQKPGQAPRLLIYAASSRATGIPDRFSGSGSGTDFTLAISRLEPEDFAVYYCQQYGTSPWTFGQGTKLEIK | 0.00625 | 0.0401 | 0.00952 | 0.021 | 0.0015 |
| B2025 (protein) chain 1: EVQLVETGGGLIQPGGSLRLSCAASEILVSRNYMSWVRQAPGKGLEWVSVLFPGGSTNYADPVKGRFTISRDNSKNTLYLQMNSLRAEDTAVYYCARGLFGEWGYFDCWGQGTLVTVSS chain 2: DIQLTQSPSSLSASVGDRVTITCRASQGISNYLAWYQQKPGKAPKLLISAASTVESGVSSRFSGSGSGTDFTLTISSLQSEDVATYYCQKYNSAPGTFGQGTKVEIK | 0.0134 | 0.0919 | 0.0131 | > 1 | 0.0104 |
| B2026 (protein) chain 1: EVQLVESGGGLVQPGRSLRLSCAASGFSFEDYAMHWVRQAPGKGLEWVSGISGNSGTLGYADSVKGRFIISRDNAKNSLYLQMRSLRVEDTALYYCAKDMAGVVILGVEEKYGMDVWGQGTTVTVSS chain 2: SYELTQPPSVSVAPGKTAKITCGGDNIGSKSVHWYKQKPGQAPLLVIYYDNDRPSQIPERFSGSNSGNMATLTINRVEAGDEADYYCQVWNSGSDHVVFGGGTKLTVL | 0.0056 | 0.145 | 0.01 | 0.00875 | 0.00331 |
| B2027 (protein) chain 1: VQLVESGGGVVQPGRSLRLSCAVSGFAFRKYGIHWVRQAPGKGLEWVAVISYDGGNIDYADSVKGRFTISRDNSKDTVYLEMNNLRAEDTAVYYCAKQTGTYCSGGNCYSGYFDYWGQGTLVTVSS chain 2: AIRMTQSPSSLSASVGDRVTITCRASQGISSALVWYQQKPGKAPKLLIYDASSLESGVPSRFSGSGSGADFTLTISSLQPEDFATYYCQQFYDSPPLTFGGGTKVEIK | > 1 | > 1 | 0.0152 | 0.00594 | 0.00244 |
| B2028 (protein) chain 1: VQLVESGGGVVQPGRSLRLSCAASGFTISTYGMHWVRQAPGKGLEWVAVISYDGSNIYYADSVKGRFTISRDNSNNTLYLQMNSLRAEDTAVYYCAKQNAPYCSGGSCYEGYFDYWGQGALVTVSS chain 2: EIVLTQSPGTLSLSPGERATLSCRASQSVTSSYLAWYQQKPGQAPRLLISGASSRATGIPDRFSGSGSGTDFTLTISRLEPEDFAVYYCQQYGSSLLTFGGGTKVEIK | > 1 | > 1 | 0.0979 | 0.0485 | 0.0116 |
| B2029 (protein) chain 1: QVQLVQSGAEVKKPGSSVKVSCKASGGTFRIYAINWVRQAPGQGLEWMGGIIPMVGKANYAQKFRGRVTITADESTSTAYMELSSLRSEDTAVYYCARDFRECTSTSCLYFFDYWGQGTLVTVSS chain 2: DIQLTQSPSSLSASVRDRVTLTCRASQNITTYLNWYQQKPGKAPKLLIYAASSLQSGVPSRFSGSGSGTDFTLTISSLQPEDFATYYCQQSFSGPRTFGLGTKVEIK | 0.0036 | 0.0228 | 0.0492 | > 1 | 0.00237 |
| B2030 (protein) chain 1: QVQLVQSGAEVKKPGSSVKVSCKASGGTFSTYAIIWVRQAPGQGLEWMGGIIPVFDAANSAQKFQGRVTITADKSTSTAYMELSSLRSEDTAVYYCARVKRLWHESVARYYFDYWDQGTLVTVSS chain 2: IRMTQSPSSLSASVGDRVTITCQASQDISNYLNWYQQKPGKAPKLLIYDASNLETGVPSRFSGSGSGTDFTFTISSLQPEDIATYYCQQYENLPVLSFGGGTKVEIK | 0.00366 | 0.0227 | > 1 | 0.00368 | 0.00072 |
